Data as given in publication PMC7819943, “Rice protein-binding microarrays: a tool to detect cis-acting elements near promoter regions in rice”.
The other results are listed elsewhere or left out.

Target: T1, OsWOX13 (Oryza sativa, UniProt Q5QMM3 1-267)
T1 sequence: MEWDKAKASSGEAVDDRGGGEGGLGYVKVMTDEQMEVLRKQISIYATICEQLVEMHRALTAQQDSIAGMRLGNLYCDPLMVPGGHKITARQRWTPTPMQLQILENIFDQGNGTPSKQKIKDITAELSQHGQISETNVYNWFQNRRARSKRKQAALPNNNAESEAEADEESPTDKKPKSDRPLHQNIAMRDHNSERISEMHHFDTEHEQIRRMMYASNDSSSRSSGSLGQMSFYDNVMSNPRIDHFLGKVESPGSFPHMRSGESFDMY
Test: protein-binding microarray (RPBM); PBS, 2% BSA, 51.3 ng/ul salmon testes DNA, 50 uM zinc acetate, 200 nM TF, 25 C, 1 h; high values mean tight binding
Conditions: protein: recombinant; tags: N-terminal polyhistidine and DsRed monomer fusion (pET32a); label: CyDye5-dUTP incorporated in the synthesized complementary strand; 3' TTTTT single-stranded linker to array surface; dsDNA, one strand shown
In short: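 Binding signal is reported as fluorescence intensity per feature (arbitrary units) from an Axon 4000B scanner. Incubation used 200 nM of each Ni–NTA-purified, N-terminally polyhistidine- and DsRed-fused transcription factor from E. coli BL21-CodonPlus on a double-stranded custom Agilent array for 1 h at 25 °C, with 50 µM zinc acetate in the buffer, followed by washing.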

First: ATTAATTAACAATAATAAGTGATTAATAATTAATTAATCGCGGAGTCACCTAGTGCAG
Second: TATCTAATAATAACAATCAAACGTTAGACATACAAACTCACGGAGTCACCTAGTGCAG
The binding signal of the first is higher: 44200 fluorescence intensity (a.u.) for the first, 6350 fluorescence intensity (a.u.) for the second.

Going from “TTTTGACATCACCAAATTTAAATAAGACAACAAACTAATTCGGAGTCACCTAGTGCAG” to “CGTTACATCATTTTAATTTCAATCAAACTTCCAATTTTAACGGAGTCACCTAGTGCAG”, the binding signal rises from 5110 fluorescence intensity (a.u.) to 13300 fluorescence intensity (a.u.).

Going from “ATATAGTTTAATGTCATAAGATAACTTAGGATAAACGTGGCGGAGTCACCTAGTGCAG” to “TAACAAATTAAATTGAAAATAGTTATCGTACATTCACAATCGGAGTCACCTAGTGCAG”, the binding signal rises from 3810 fluorescence intensity (a.u.) to 9910 fluorescence intensity (a.u.).

First: TATAAAATTTGTCCTAATGAATTTTCCTACTACAGTTTTACGGAGTCACCTAGTGCAG
Second: GTTGATGTGATGGAAAATGACTGAAGATTGGATCTAAACTCGGAGTCACCTAGTGCAG
The binding signal of the first is lower: 3570 fluorescence intensity (a.u.) for the first, 31100 fluorescence intensity (a.u.) for the second.

Going from “CTAAAATTTGCTGCTCTCTCCAGTTCCTTCACTTCTTCAACGGAGTCACCTAGTGCAG” to “AATTAACTGTTAACTGCACCCATCAGTAACAAAATAACGCCGGAGTCACCTAGTGCAG”, the binding signal rises from 4030 fluorescence intensity (a.u.) to 22900 fluorescence intensity (a.u.).

First: AGGGTGATAGAGAGAGAGAGATTCAGATCCACCCGCGTCTCGGAGTCACCTAGTGCAG
Second: TAAGATAAATTGCAGAAAACTTCAACTGTTTTGTCCAAACCGGAGTCACCTAGTGCAG
The binding signal of the first is lower: 3530 fluorescence intensity (a.u.) for the first, 3540 fluorescence intensity (a.u.) for the second.

Compared with “GGTGACACTTAATTAGGATGGCTAGTAATATTGCAGTCGTCGGAGTCACCTAGTGCAG”, “AGAAGTTGATTTGGGGTTGCGCTATATCTATTAAAGAGTACGGAGTCACCTAGTGCAG” is lower in binding signal: 17800 fluorescence intensity (a.u.) for the first, 7340 fluorescence intensity (a.u.) for the second.

Compared with “GGTTGTTAGCACATGATTAATTGTATTAAAACAACTTAAACGGAGTCACCTAGTGCAG”, “AAGTGATTGACCGGATTATTACTGAGGGGAATATGCTCGGCGGAGTCACCTAGTGCAG” is higher in binding signal: 3580 fluorescence intensity (a.u.) for the first, 47800 fluorescence intensity (a.u.) for the second.

Compared with “GTTACAATTACACATGATTTAATTGGCCCTACCATATTCTCGGAGTCACCTAGTGCAG”, “TCTTAATGTAGAAATTGAATTTCCTTCTAAAAGAAATCAGCGGAGTCACCTAGTGCAG” is lower in binding signal: 49400 fluorescence intensity (a.u.) for the first, 12100 fluorescence intensity (a.u.) for the second.

Going from “ACAGCTGACGAATTGATGTATTGCATCAGGCCCTCTTCAACGGAGTCACCTAGTGCAG” to “ATTTGATGCCACTTTTAATTTACTTTCCCATTTTAATGTACGGAGTCACCTAGTGCAG”, the binding signal rises from 4780 fluorescence intensity (a.u.) to 5300 fluorescence intensity (a.u.).

First: AAAATTAACATGGTAAATTAATATGATATATATCACTCTACGGAGTCACCTAGTGCAG
Second: GGTAGATTGGCCGGAACAAAGCGAAGAAAAGGTGGCCTCACGGAGTCACCTAGTGCAG
The binding signal of the first is higher: 24400 fluorescence intensity (a.u.) for the first, 22800 fluorescence intensity (a.u.) for the second.

With “ATTTGTCAATTGATAGATCTGCTCCTCATCCAAGCTCCATCGGAGTCACCTAGTGCAG” the binding signal was 24900 fluorescence intensity (a.u.).
